Laboratory results taken from PubChem BioAssay AID1030 (National Center for Advancing Translational Sciences (NCATS), 2008).
The whole screen tested about 220,000 compounds, of which about 16,000 (7.3%) were called active. The inconclusive results got no clear call from the source; some entries with a clear call stand among them for comparison. The call rests on the fitted dose curve; in most records, active means well fitted inhibition curve with a large enough effect (not every such curve was filed as active); inconclusive means small, poorly fitted or top-dose-only effect, or another doubt; inactive means no such curve, though single readings can be large or run the other way. A potency beside an inconclusive call is a rough fit, not a confirmed value.

What follows are compounds tested against Aldehyde dehydrogenase 1A1 (Homo sapiens) (UniProt P00352) (assay: qHTS Assay for Inhibitors of Aldehyde Dehydrogenase 1 (ALDH1A1)). Conditions: Purified ALDH1A1, NADH fluorescence, propionaldehyde substrate; series mostly up to 75.3 µM.
Chain of UniProt P00352 (P00352 whole entry, looked up): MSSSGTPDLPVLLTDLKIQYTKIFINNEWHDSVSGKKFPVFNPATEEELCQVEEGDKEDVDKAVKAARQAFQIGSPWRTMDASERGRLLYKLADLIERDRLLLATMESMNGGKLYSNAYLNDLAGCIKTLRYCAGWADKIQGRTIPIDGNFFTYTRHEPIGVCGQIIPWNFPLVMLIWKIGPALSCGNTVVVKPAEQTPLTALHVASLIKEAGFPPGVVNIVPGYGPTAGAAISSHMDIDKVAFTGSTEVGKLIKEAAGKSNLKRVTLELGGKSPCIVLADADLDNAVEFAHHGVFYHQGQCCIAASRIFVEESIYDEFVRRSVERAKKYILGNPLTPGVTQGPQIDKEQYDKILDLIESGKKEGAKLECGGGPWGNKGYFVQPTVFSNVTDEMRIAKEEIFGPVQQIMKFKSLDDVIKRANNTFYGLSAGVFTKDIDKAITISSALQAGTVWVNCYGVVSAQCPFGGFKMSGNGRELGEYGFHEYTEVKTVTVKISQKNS
Potency means the concentration at half of the fitted maximal effect; tags describe the fitted curve by direction and shape.
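Wherever activity, negative = inhibition is given: plate controls were no enzyme wells and a reference inhibitor.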

Potency, inconclusive:
COc1ccc(CC(=O)Nc2ccccc2Oc2ccccc2)cc1 35.5 µM [inhibitor, single point]
CCOC(=O)c1c(NC(=O)CN(C)C2CCN(C)CC2)sc(C(=O)Nc2ccccc2)c1C 39.8 µM [inhibitor, single point]
CCOC(=O)c1c(NC(=O)CNC2CCCc3ccccc32)sc(C(N)=O)c1C (stereo not given) 25.1 µM [inhibitor, partial curve]
COc1ccc2[nH]c(=O)c(C(c3nnnn3C3CCCC3)N(C)C3CCCCC3)cc2c1 (stereo not given) 25.1 µM [inhibitor, partial curve]
COc1ccc(-n2nc3cc(C)c(N)c(Br)c3n2)cc1 20 µM [inhibitor, partial curve]
COc1cnn(-c2ccccc2)c(=O)c1SCc1ccc(Cl)cc1Cl 14.1 µM [inhibitor, partial curve]
CN(C)C(=O)OC1=C(c2ccccc2)Sc2ccccc2-n2cccc21 39.8 µM [inhibitor, single point]
CCc1ccccc1NC(=S)N(CCCN(C)C)Cc1cc2cc3c(cc2[nH]c1=O)OCO3 39.8 µM [inhibitor, single point]
CC(NC(=O)CN(C)Cc1nc2ccccc2c(=O)[nH]1)c1ccccc1 (stereo not given) 10 µM [inhibitor, partial curve]
Cc1ccc(OCC(=O)N2N=C(c3ccc(Cl)cc3)CC2c2ccco2)c([N+](=O)[O-])n1 (stereo not given) 35.5 µM [inhibitor, single point]
Fc1ccc(-c2cnc(-c3cccs3)o2)cc1 25.1 µM [inhibitor, partial curve]
Cc1ccc(S(=O)(=O)N2CCN(C(=O)c3nn(C(C)C)c(=O)c4ccccc34)CC2)cc1C 28.2 µM [inhibitor, single point]
C=CCc1c(OC)ccc2ccc(=O)oc12 35.5 µM [inhibitor, single point]
COc1ccc(C(=O)N2CCC3(CC2)CN(c2ncccn2)C3)cc1 35.5 µM [inhibitor, single point]
CC(C)Cn1c(N)c(C(=O)COC(=O)CN2C(=O)C3CC=CCC3C2=O)c(=O)n(C)c1=O (stereo not given) 25.1 µM [inhibitor, partial curve]
CC(C)OC(=O)CSc1nnc2c3ccccc3n(C)c2n1 39.8 µM [inhibitor, single point]
CCC1(C)Cc2ccccc2-c2c1c(=O)n(-c1ccc(C)cc1)c1nnnn21 (stereo not given) 20 µM [inhibitor, partial curve]
Cc1ccccc1CC1(CO)CCCN(C(=O)c2ccc3ncccc3c2)C1 (stereo not given) 39.8 µM [inhibitor, single point]
CCNC(=S)N(Cc1cccs1)Cc1cc2cc(OCC)ccc2[nH]c1=O 28.2 µM [inhibitor, partial curve]
C=CCOc1ccccc1CNc1ccc2c(c1)OCCO2 31.6 µM [inhibitor, single point]
O=C(CCNS(=O)(=O)c1cccc2nsnc12)NC1CCCc2ccccc21 (stereo not given) 31.6 µM [inhibitor, single point]
O=C(CN1CCN(C(=O)c2ccccc2F)CC1)Nc1ccc(Br)cc1 39.8 µM [inhibitor, single point]
Cc1cccc(NC(=O)CSc2nnc(NC(=O)c3ccc(S(=O)(=O)N4CCOCC4)cc3)s2)c1C 35.5 µM [inhibitor, single point]
CCOC(=O)Cc1csc(NC(=O)c2ccc(C)o2)n1 25.1 µM [inhibitor, single point]
C/C=C/Cn1c(N2CCCCCC2)nc2c1c(=O)[nH]c(=O)n2C 28.2 µM [inhibitor, single point]
O=S(=O)(NCc1ccccc1)c1cccc2nonc12 25.1 µM [inhibitor, single point]
COc1ccccc1NC(=S)NNC(=O)c1nn(C)cc1Cl 39.8 µM [inhibitor, single point]
COc1ccccc1OCC(=O)N(Cc1nc(-c2ccccc2)no1)C1CCCCC1 20 µM [inhibitor, partial curve, poor fit]
COC(=O)c1ccccc1NC(=O)COC(=O)/C=C/c1ccco1 39.8 µM [inhibitor, single point]
COCc1c(C(=O)N2CCN(c3ccc(C(F)(F)F)cn3)CC2)oc2ccccc12 44.7 µM [inhibitor, single point]
c1ccc(-c2nc(-c3cccs3)[nH]c2-c2ccccc2)cc1 28.2 µM [inhibitor, partial curve]
Cc1cc(C)n(CCNC(=O)CC2C(=O)NCCN2Cc2ccccc2C(F)(F)F)n1 (stereo not given) 39.8 µM [inhibitor, single point]
O=S(=O)(CCSc1ccc(C(F)(F)F)cn1)c1ccccc1 20 µM [inhibitor, partial curve]
O=C(c1cnc2n(c1=O)CCS2)N1CCN(C(c2ccccc2)c2ccc(Cl)cc2)CC1 (stereo not given) 23.8 µM [inhibitor, single point]
CC12CCC(C(=O)N(CSC(=S)N/N=C\c3ccccc3)C1=O)C2(C)C (stereo not given) 39.8 µM [inhibitor, single point]
Cc1ccc(NC(=S)NCCc2c[nH]c3ccccc23)c(C)c1 20 µM [inhibitor, single point]

Potency, inactive:
CCSC(SCC)[C@H](O)[C@@H](O)[C@H](O)[C@H](O)CO
Cc1ccc(NS(=O)(=O)c2cccc(C(=O)N/N=C/c3c(C)nn(-c4ccccc4)c3N3CCCC3)c2)c(C)c1
O=C(NC(=S)NCCc1ccccc1)c1ccco1
COC(=O)C1=C(C)N=c2s/c(=C/c3cccs3)c(=O)n2C1c1cccs1 (stereo not given)
CC(C)(C)CC(=O)NC(=S)NCc1ccccc1
COc1ccccc1C/C(N)=N/OC(=O)c1ccc2c(c1)OCO2
CCOC(=O)c1cc(C)n(-c2c(C)n(C)n(-c3ccccc3)c2=O)c1C
O=C(N/N=C\c1ccc(-c2ccccc2[N+](=O)[O-])o1)C1COc2cc3ccccc3cc2O1 (stereo not given)
O=C(Nc1ccc(F)cc1)C1CCN(S(=O)(=O)c2cccs2)CC1
c1ccc(-c2nc(-c3cccc4ccccc34)c(NC3CCCCC3)o2)cc1
N#CC1=C2N=C(N)c3ccccc3N2C2=C(C(=O)CCC2)C1c1ccc(Cl)cc1 (stereo not given)
CC(O)C(NC=C1C(=O)OC(C)(C)OC1=O)C(=O)O (stereo not given)
CC(=O)N1CCC(=NNc2nc3ccccc3s2)CC1
COc1ccc(C(=O)C(c2ccccc2)N2CCOCC2)cc1 (stereo not given)
Cc1cc(/C=C2/NC(=O)NC2=O)c(C)n1-c1ccncc1
COc1cc(C=O)c(Br)cc1OCC(=O)NCc1ccccc1
COC(=O)c1cc(-c2ccc(OC)c(OC)c2)n[nH]1
CCN(C(=O)CSc1nnc(-c2ccccc2)n1C)C1CCS(=O)(=O)C1 (stereo not given)

Potency, active:
Cc1ccc(C)n1-c1sc2c(c1C(=O)O)CCCC2 28.2 µM
CCOC(=O)C1CCN(CC(=O)N2C(C)CCCC2C)CC1 (stereo not given) 11.2 µM
CCOC(=O)c1c(NC(=O)CCC(=O)O)sc2c1CCCCC2 8.91 µM
CCc1cc2c3c(c1)C(C)CC(C)(C)N3C(=O)C2=O (stereo not given) 0.316 µM
COc1cc(/C=C/C(=O)N2CCCc3ccccc32)cc(OC)c1OC 14.1 µM
Cc1ccc(C(=O)NC(=S)Nc2ccccc2C(F)(F)F)c(C)c1 12.6 µM
Cc1ccccc1NS(=O)(=O)c1cc(C(=O)NCCC2=CCCCC2)ccc1Cl 20 µM
Cc1cc(C)cc(NS(=O)(=O)c2ccc(NC(=S)NC(=O)c3ccc(Br)o3)cc2)c1 14.1 µM
CCOc1ccc(NC(=O)CN2CCN(CC(=O)Nc3ccc(F)cc3)CC2)cc1 11.9 µM
O=S(=O)(c1ccccc1)c1nc(-c2ccccc2)oc1N1CCOCC1 3.55 µM
O=C1CC(c2ccco2)Cc2nc(N3CCc4ccccc4C3)ncc21 (stereo not given) 12.6 µM
CN(C)c1ccc(/C=[N+](\[O-])C2N(c3ccccc3)C(=S)SC2(C)C)cc1 (stereo not given) 22.4 µM
CN(C)c1ccc(CNC(=O)C2(C)C=CCN2C(=O)c2ccccc2)cc1 (stereo not given) 17.8 µM
CCOC(=O)c1c(NC(=O)CSc2ncnc3ccccc23)sc(C)c1C 14.1 µM
COc1ccc(CNC(=O)CN(C(=O)c2ccc(CN3CCOCC3)o2)C2CCCC2)cc1 11.2 µM
CCCc1cc(C(=O)Nc2sc3c(c2C#N)CCC3)no1 11.2 µM

activity, negative = inhibition, inactive:
CC(C)N(Cc1ccccc1)S(=O)(=O)c1n[nH]c(C(C)(C)C)n1 19.2% [at 13.5 µM]
CCCCC1=CC2=CC(=O)C(C)(OC(=O)CC)C(=O)C2=CN1Cc1ccc(OC)cc1 (stereo not given) 9.59% [at 13.5 µM]
NCCSCCC(=O)O 6.5% [at 13.5 µM]
COC(=O)CCC(=O)OC1(C)C(=O)C=C2C=C(C3CC3)N(C(CO)CO)C=C2C1=O (stereo not given) 11.6% [at 13.5 µM]
O=C(O)c1cccc(C(=O)O)c1S(=O)Cc1ccccc1 (stereo not given) 12.6% [at 13.5 µM]
